# In the supplement of paper PMC8728848:
# This is one part of the list.
# B1: rCnSL-proA (Clitocybe nebularis) (protein)
# chain: AAFFSLVVLLALLPFGIHASALPSTELTPRVNPNLPGPNDVFVGFRGTNNIVGAIYEKDGIKDTPLNNGADAEMGPGSYITDGLFTARIFASGSAGNNPGTTATVCKIYASGVQWRGAPKGYIPVAYFGNGPTAEQRRQTYLRTLGLPGTAIRFGNLNTNPGQGPTAPRQMVVPPGPLRSLLKASCFPAADTRLPQTLHYFEKRVDWNIITAADSQTWGH
# Experiments:
# Test in all cases: glycan array binding signal (z-score within array); higher = stronger binding
# Conditions in all cases: glycan notation: IUPAC condensed, linker removed
# [1] = molecular target: GlcNAc(b1-3)Gal(b1-4)GlcNAc(b1-3)Gal(b1-4)GlcNAc(b1-2)Man(a1-3)[GlcNAc(b1-3)Gal(b1-4)GlcNAc(b1-3)Gal(b1-4)GlcNAc(b1-2)Man(a1-6)]Man(b1-4)GlcNAc(b1-4)[Fuc(a1-6)]GlcNAc
# In short: (§1)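 Columns mapping to the same glycan were averaged after glycan names were converted to IUPAC-condensed notation. The data come from 3228 arrays in the Consortium for Functional Glycomics database, limited to those with an available protein sequence. Binding is reported as a within-array Z-score averaged across arrays of one protein sequence and across linkers.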
# [2] = molecular target: GlcNAc(b1-3)Gal(b1-4)GlcNAc(b1-3)Gal(b1-4)GlcNAc(b1-2)[GlcNAc(b1-3)Gal(b1-4)GlcNAc(b1-3)Gal(b1-4)GlcNAc(b1-6)]Man(a1-6)[GlcNAc(b1-3)Gal(b1-4)GlcNAc(b1-3)Gal(b1-4)GlcNAc(b1-2)Man(a1-3)]Man(b1-4)GlcNAc(b1-4)[Fuc(a1-6)]GlcNAc
# In short: as §1
# [3] = molecular target: GlcNAc(b1-3)Gal(b1-4)GlcNAc(b1-3)Gal(b1-4)GlcNAc(b1-3)Gal(b1-4)GlcNAc(b1-2)Man(a1-3)[GlcNAc(b1-3)Gal(b1-4)GlcNAc(b1-3)Gal(b1-4)GlcNAc(b1-3)Gal(b1-4)GlcNAc(b1-2)Man(a1-6)]Man(b1-4)GlcNAc(b1-4)GlcNAc
# In short: as §1
# [4] = molecular target: GlcNAc(b1-3)Gal(b1-4)GlcNAc(b1-3)Gal(b1-4)GlcNAc(b1-3)Gal(b1-4)GlcNAc(b1-2)Man(a1-3)[GlcNAc(b1-3)Gal(b1-4)GlcNAc(b1-3)Gal(b1-4)GlcNAc(b1-3)Gal(b1-4)GlcNAc(b1-2)Man(a1-6)]Man(b1-4)GlcNAc(b1-4)[Fuc(a1-6)]GlcNAc
# In short: as §1
# [5] = molecular target: GlcNAc(b1-3)Gal(b1-4)GlcNAc(b1-3)Gal(b1-4)GlcNAc(b1-3)Gal(b1-4)GlcNAc(b1-2)[GlcNAc(b1-3)Gal(b1-4)GlcNAc(b1-3)Gal(b1-4)GlcNAc(b1-3)Gal(b1-4)GlcNAc(b1-6)]Man(a1-6)[GlcNAc(b1-3)Gal(b1-4)GlcNAc(b1-3)Gal(b1-4)GlcNAc(b1-3)Gal(b1-4)GlcNAc(b1-2)Man(a1-3)]Man(b1-4)GlcNAc(b1-4)[Fuc(a1-6)]GlcNAc
# In short: as §1
# [6] = molecular target: GlcNAc(b1-3)Gal(b1-4)GlcNAc(b1-3)Gal(b1-4)GlcNAc(b1-3)Gal(b1-4)GlcNAc(b1-3)Gal(b1-4)GlcNAc(b1-2)Man(a1-3)[GlcNAc(b1-3)Gal(b1-4)GlcNAc(b1-3)Gal(b1-4)GlcNAc(b1-3)Gal(b1-4)GlcNAc(b1-3)Gal(b1-4)GlcNAc(b1-2)Man(a1-6)]Man(b1-4)GlcNAc(b1-4)GlcNAc
# In short: as §1
# [7] = molecular target: GlcNAc(b1-3)Gal(b1-4)GlcNAc(b1-3)Gal(b1-4)GlcNAc(b1-3)Gal(b1-4)GlcNAc(b1-3)Gal(b1-4)GlcNAc(b1-2)Man(a1-3)[GlcNAc(b1-3)Gal(b1-4)GlcNAc(b1-3)Gal(b1-4)GlcNAc(b1-3)Gal(b1-4)GlcNAc(b1-3)Gal(b1-4)GlcNAc(b1-2)Man(a1-6)]Man(b1-4)GlcNAc(b1-4)[Fuc(a1-6)]GlcNAc
# In short: as §1
# [8] = molecular target: GlcNAc(b1-3)Gal(b1-4)GlcNAc(b1-3)Gal(b1-4)GlcNAc(b1-3)Gal(b1-4)GlcNAc(b1-3)Gal(b1-4)GlcNAc(b1-2)[GlcNAc(b1-3)Gal(b1-4)GlcNAc(b1-3)Gal(b1-4)GlcNAc(b1-3)Gal(b1-4)GlcNAc(b1-3)Gal(b1-4)GlcNAc(b1-6)]Man(a1-6)[GlcNAc(b1-3)Gal(b1-4)GlcNAc(b1-3)Gal(b1-4)GlcNAc(b1-3)Gal(b1-4)GlcNAc(b1-3)Gal(b1-4)GlcNAc(b1-2)Man(a1-3)]Man(b1-4)GlcNAc(b1-4)[Fuc(a1-6)]GlcNAc
# In short: as §1
# [9] = molecular target: GlcNAc(b1-3)Gal(b1-4)GlcNAc(b1-3)Gal(b1-4)GlcNAc(b1-3)GalNAc
# In short: as §1
# [10] = molecular target: GlcNAc(b1-3)Gal(b1-4)GlcNAc(b1-3)GalNAc
# In short: as §1
# [11] = molecular target: GlcNAc(b1-3)Gal(b1-4)GlcNAc(b1-3)[GlcNAc(b1-3)Gal(b1-4)GlcNAc(b1-3)]GalNAc
# In short: as §1
# [12] = molecular target: GlcNAc(b1-3)Gal(b1-4)GlcNAc(b1-6)[Gal(b1-3)]GalNAc
# In short: as §1
# [13] = molecular target: GlcNAc(b1-3)Gal(b1-4)GlcNAc(b1-6)[GlcNAc(b1-3)Gal(b1-3)]GalNAc
# In short: as §1
# [14] = molecular target: GlcNAc(b1-3)Gal(b1-4)GlcNAc(b1-6)[GlcNAc(b1-3)]Gal(b1-4)GlcNAc
# In short: as §1
# [15] = molecular target: GlcNAc(b1-3)GalNAc
# In short: as §1
# [16] = molecular target: GlcNAc(b1-3)Man
# In short: as §1
# [17] = molecular target: GlcNAc(b1-3)[GlcNAc(b1-4)][GlcNAc(b1-6)]GlcNAc
# In short: as §1
# [18] = molecular target: GlcNAc(b1-3)[GlcNAc(b1-6)]Gal(b1-4)GlcNAc
# In short: as §1
# [19] = molecular target: GlcNAc(b1-3)[GlcNAc(b1-6)]GalNAc
# In short: as §1
# [20] = molecular target: GlcNAc(b1-4)Gal(b1-4)GlcNAc
# In short: as §1
# [21] = molecular target: GlcNAc(b1-4)GlcNAc
# In short: as §1
# [22] = molecular target: GlcNAc(b1-4)GlcNAc(b1-4)GlcNAc
# In short: as §1
# [23] = molecular target: GlcNAc(b1-4)GlcNAc(b1-4)GlcNAc(b1-4)GlcNAc(b1-4)GlcNAc
# In short: as §1
binder,measurement,setting,value
B1,glycan array binding signal (z-score),[1],0.405
same,glycan array binding signal (z-score),[2],-0.859
same,glycan array binding signal (z-score),[3],-0.215
same,glycan array binding signal (z-score),[4],0.698
same,glycan array binding signal (z-score),[5],-1.06
same,glycan array binding signal (z-score),[6],-0.269
same,glycan array binding signal (z-score),[7],0.053
same,glycan array binding signal (z-score),[8],-0.432
same,glycan array binding signal (z-score),[9],-0.454
same,glycan array binding signal (z-score),[10],-0.133
same,glycan array binding signal (z-score),[11],0.25
same,glycan array binding signal (z-score),[12],-0.117
same,glycan array binding signal (z-score),[13],-0.125
same,glycan array binding signal (z-score),[14],-0.668
same,glycan array binding signal (z-score),[15],-0.561
same,glycan array binding signal (z-score),[16],0.735
same,glycan array binding signal (z-score),[17],-0.363
same,glycan array binding signal (z-score),[18],-0.723
same,glycan array binding signal (z-score),[19],-0.541
same,glycan array binding signal (z-score),[20],0.712
same,glycan array binding signal (z-score),[21],-0.274
same,glycan array binding signal (z-score),[22],-0.208
same,glycan array binding signal (z-score),[23],-0.146
